Measured values as given in US9382245B2, “Compounds and methods for treating HIV infections” (priority 2013, dated 2016).
Values joined by “and” are separate entries in the source; they are usually repeats but may differ in a detail not shown here. Identical values can stand only once. Like-named read-outs stand apart in the source and are kept apart here.

What was measured:
Assay in all cases: microbe, parasite or virus in culture
Format in all cases: cell-based
[1] = tested on: HIV-1 variant strain with Y181C mutation in RT
[2] = tested on: IIIB strain of HIV-1 (wild-type)
[3] = tested on: HIV-1 variant strain with K103N/Y181C mutations in RT
[4] = Human immunodeficiency virus 1, MT2, Table 1, 50% protection in MT-2 cells, NA = EC50 > CC50, read-out: Y181C EC50
[5] = Human immunodeficiency virus 1, MT2, Table 4, 50% protection in MT-2 cells, NA = EC50 > CC50, read-out: Y181C EC50
[6] = Human immunodeficiency virus 1, IIIB, MT2, Table 1, 50% protection in MT-2 cells, NA = EC50 > CC50, read-out: WT EC50
[7] = Human immunodeficiency virus 1, IIIB, MT2, Table 4, 50% protection in MT-2 cells, NA = EC50 > CC50, read-out: WT EC50
[8] = Human immunodeficiency virus 1, IIIB, MT2, text, MT-2 cell assay, read-out: EC50 towards wild-type HIV-1
[9] = Human immunodeficiency virus 1, MT2, read-out: 103N181C EC50, Table 1, 50% protection in MT-2 cells, NA = EC50 > CC50
[10] = Human immunodeficiency virus 1, MT2, read-out: K103N/Y181C EC50, Table 4, 50% protection in MT-2 cells, NA = EC50 > CC50
[11] = Human immunodeficiency virus 1, MT2, Table 3, 50% protection in MT-2 cells, NA = EC50 > CC50, read-out: Y181C EC50
[12] = Human immunodeficiency virus 1, MT2, text, MT-2 cell assay
[13] = Human immunodeficiency virus 1, IIIB, MT2, Table 3, 50% protection in MT-2 cells, NA = EC50 > CC50, read-out: WT EC50
[14] = Human immunodeficiency virus 1, MT2, read-out: 103N181C EC50, Table 3, 50% protection in MT-2 cells, NA = EC50 > CC50
[15] = Human immunodeficiency virus 1, MT2, read-out: EC50 towards K103N/Y181C variant, MT-2 cell assay
[16] = MT-2 cell assay, read-out: EC50 towards wild-type HIV-1

| SMILES | EC50 [1, 4] [nM] | EC50 [1, 5] [nM] | EC50 [2, 6] [nM] | EC50 [2, 7] [nM] | EC50 [2, 8] [nM] | EC50 [3, 9] [nM] | EC50 [3, 10] [nM] | EC50 [1, 11] [nM] | EC50 [1, 12] [nM] | EC50 [2, 13] [nM] | EC50 [3, 14] [nM] | EC50 [3, 15] [nM] | EC50 ([3]; read-out: EC50 towards K103N/Y181C variant, MT-2 cell assay) [nM] | EC50 [2, 16] | activity towards the wild-type virus, in words ([2]; MT-2 cell assay) |
| --- | --- | --- | --- | --- | --- | --- | --- | --- | --- | --- | --- | --- | --- | --- | --- |
| N#Cc1cc2c(Oc3ccccc3OCCn3ccc(=O)[nH]c3=O)cccc2[nH]1 [8d, 4-(2-(2-(2,4-dioxo-3,4-dihydropyrimidin-1(2H)-yl)ethoxy)phenoxy)-1H-indole-2-carbonitrile] | 38000 | 38000 | 56 | 56 | 56 | 5500 | 5500 | – | – | – | – | – | – | – | – |
| N#Cc1ccc2c(Oc3ccccc3OCCn3ccc(=O)[nH]c3=O)cc(F)cc2c1 [14k, 5-(2-(2-(2,4-dioxo-3,4-dihydropyrimidin-1(2H)-yl)ethoxy)phenoxy)-7-fluoro-2-naphthonitrile] | – | 8 | – | 1.1 | – | – | 6 | 8 | < 10 | 1.1 | 6 | ~10 | < 10 | – | – |
| N#Cc1ccc2c(Oc3ccccc3OCCn3ccc(=O)[nH]c3=O)cccc2c1 [14e, 5-(2-(2-(2,4-dioxo-3,4-dihydropyrimidin-1(2H)-yl)ethoxy)phenoxy)-2-naphthonitrile] | – | 19 | – | 0.53 | – | – | 15 | 19 | < 20 | 0.53 | 15 | ~10 | – | 0.5 nM | – |
| N#Cc1ccc2c(Oc3ccc(F)cc3OCCn3ccc(=O)[nH]c3=O)cccc2c1 [14i, 5-(2-(2-(2,4-dioxo-3,4-dihydropyrimidin-1(2H)-yl)ethoxy)-4-fluorophenoxy)-2-naphthonitrile] | – | 10 | – | 0.49 | 0.4 to 0.5 | – | 48 | 10 | – | 0.49 | 48 | ~10 | – | ~0.5 nM and 0.5 nM | – |
| N#Cc1ccc2c(Oc3ccc(Cl)cc3OCCn3ccc(=O)[nH]c3=O)cc(Cl)cc2c1 [14h, 7-chloro-5-(4-chloro-2-(2-(2,4-dioxo-3,4-dihydropyrimidin-1(2H)-yl)ethoxy)phenoxy)-2-naphthonitrile] | – | 49 | – | 11 | – | – | 280 | – | – | – | – | – | – | – | – |
| N#Cc1ccc2c(Oc3ccc(Cl)cc3OCCn3ccc(=O)[nH]c3=O)cc(F)cc2c1 [14m, 5-(4-chloro-2-(2-(2,4-dioxo-3,4-dihydropyrimidin-1(2H)-yl)ethoxy)phenoxy)-7-fluoro-2-naphthonitrile] | – | 32 | – | 5 | – | – | 150 | – | – | – | – | – | – | – | – |
| Cc1cc(Oc2ccccc2OCCn2ccc(=O)[nH]c2=O)c2cc(C#N)cn2c1 [10c, 8-(2-(2-(2,4-dioxo-3,4-dihydropyrimidin-1(2H)-yl)ethoxy)phenoxy)-6-methylindolizine-2-carbonitrile] | 800 | – | 0.9 | – | – | 32 | – | – | – | – | – | – | – | – | high picomolar inhibitors |
| O=c1ccn(CCOc2ccccc2Oc2cccc3ccccc23)c(=O)[nH]1 [14a, 1-(2-(2-(naphthalen-1-yloxy)phenoxy)ethyl)pyrimidine-2,4(1H,3H)-dione] | – | 5700 | – | 60 | – | – | 5000 | – | – | – | – | – | – | – | – |
| Cc1cc(Oc2ccc(F)cc2OCCn2ccc(=O)[nH]c2=O)c2cc(C#N)cn2c1 [10g, 8-(2-(2-(2,4-dioxo-3,4-dihydropyrimidin-1(2H)-yl)ethoxy)-4-fluorophenoxy)-6-methylindolizine-2-carbonitrile] | 400 | – | 2 | – | – | 250 | – | – | – | – | – | – | – | – | – |
| N#Cc1cc2c(Oc3ccc(Cl)cc3OCCn3ccc(=O)[nH]c3=O)cccn2c1 [10m, 8-(4-chloro-2-(2-(2,4-dioxo-3,4-dihydropyrimidin-1(2H)-yl)ethoxy)phenoxy)indolizine-2-carbonitrile] | 1800 | – | 5.1 | – | – | 900 | – | – | – | – | – | – | – | – | – |
| N#Cc1cc2c(Oc3ccc(F)cc3OCCn3ccc(=O)[nH]c3=O)cccc2o1 [12d, 4-(2-(2-(2,4-dioxo-3,4-dihydropyrimidin-1(2H)-yl)ethoxy)-4-fluorophenoxy)benzofuran-2-carbonitrile] | 3500 | 3500 | 40 | 40 | – | 4000 | 4000 | – | – | – | – | – | – | – | – |
